Assay results as given in the antibiotic and cytotoxicity screens of Wong et al. (2023).
This is one part of the list.

Assays:
HSkMC = human skeletal muscle cells; test: cytotoxicity call (relative viability < 0.9); settings: 10 µM
S. aureus RN4220 = test: growth inhibition call (relative growth <= 0.2); settings: 50 µM

SMILES | cytotoxicity call (HSkMC) | growth inhibition call (S. aureus RN4220)
COc1ccc(CN(C)C[C@@H]2OCCCC[C@@H](C)Oc3ccc(NC(=O)Nc4ccc5c(c4)OCO5)cc3C(=O)N([C@H](C)CO)C[C@H]2C)cc1 | inactive | inactive
Cc1ccc(S(=O)(=O)N(C)C[C@H]2Oc3ccc(NC(=O)NC(C)C)cc3C(=O)N([C@@H](C)CO)C[C@@H]2C)cc1 | inactive | inactive
O=C(Nc1ccccc1)c1ccccc1 | inactive | inactive
COC(=O)[C@H](Cc1ccccc1)NC(=O)[C@@H](N)CC(=O)O | inactive | inactive
C[C@@H]1CN([C@H](C)CO)C(=O)c2cc(C#CCc3ccccc3)cnc2O[C@H]1CN(C)C(=O)Cc1cccnc1 | inactive | inactive
C[C@H](CO)N1C[C@H](C)[C@H](CN(C)S(=O)(=O)c2ccc(F)cc2)Oc2c(NS(=O)(=O)c3ccc(F)cc3)cccc2C1=O | inactive | inactive
C[C@@H]1CCCCO[C@H](CN(C)Cc2ccc(Cl)c(Cl)c2)[C@@H](C)CN([C@@H](C)CO)C(=O)c2cc(NC(=O)Nc3ccccc3)ccc2O1 | inactive | inactive
C[C@H]1CN([C@@H](C)CO)C(=O)c2cccc(NC(=O)c3ccncc3)c2O[C@H]1CN(C)Cc1ccc(C(=O)O)cc1 | inactive | inactive
COc1ccccc1[C@@H](NC(=O)C1CCN(CCc2ccc(Br)cc2)CC1)c1ccccn1 | inactive | inactive
CC(C)NC(=O)Nc1ccc2c(c1)C(=O)N([C@H](C)CO)C[C@H](C)[C@@H](CN(C)Cc1ccccc1)OCCCC[C@H](C)O2 | inactive | inactive
C[C@@H]1CN(CCO[Si](C)(C)C(C)(C)C)C(=O)c2cc(NC(=O)Nc3ccccc3)ccc2O[C@@H](C)CCCCO[C@H]1CN(C)S(=O)(=O)c1ccc(F)cc1 | inactive | inactive
